# Results published in patent US20250289861A1 (IMMUNOFORGE, published 2025).
# Experiments:
# [1] = target: IGF-1R on HEK 293 IGF-1R cells (PathHunter HEK293 IGF-1R bioassay kit); test: cell-based or functional assay
# [2] = target: GLP1R on CHO-K1 GLP1R cells (cAMP Hunter Liraglutide bioassay kit); test: cell-based or functional assay
"EC50 (nM), IGF-1R phosphorylation assay (PathHunter HEK293 IGF-1R bioassay kit) [1] [nM]","EC50 (pM), cAMP assay on CHO-K1 GLP1R cells (cAMP Hunter Liraglutide bioassay kit) [2] [pM]",Binder
13.9,20,PF1802_M008 (GLP1-Fc-mut.IGF1) (Fc fusion) HGEGTFTSDVSSYLEEQAAKEFIAWLVKGGGGSAPAPGGGGS[letters of human IgG1 Fc with changes left out]GGGGSGGGGSGGGGSGGGGSGAHSGPATLCGAELVDALQFVCGDRGFYFNKPTGYGSSSRRAPQTGIVDECCARSCDLRRLEMYCAPLKPTKST
9.91,6,PF1802_M010 (GLP1-Fc-mut.IGF1-TfR) (Fc fusion) HGEGTFTSDVSSYLEEQAAKEFIAWLVKGGGGSAPAPGGGGS[letters of human IgG1 Fc with changes left out]GGGGSGGGGSGGGGSGGGGSGAHSGPATLCGAELVDALQFVCGDRGFYFNKPTGYGSSSRRAPQTGIVDECCARSCDLRRLEMYCAPLKPTKSTGSAPAPGGGGSTHRPPMWSPVWP
> 2000,11,PF1802_M011 (GLP1-Fc) (Fc fusion) HGEGTFTSDVSSYLEEQAAKEFIAWLVKGGGGSAPAPGGGGS[letters of human IgG1 Fc with changes left out]
